Measured values: article PMC4336329 (PLoS ONE, 2015)
The campaign covered roughly 310,000 compounds. About 14,000 (4.5%) showed an effect of 50% or more. The effect is printed as a negative number. This is one part of the list.

Each molecule was assayed against human ether-à-go-go-related gene (hERG) potassium channel (human, UniProt Q12809) (assay: primary screen, population patch clamp on CHO cells stably expressing hERG).
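Further: peak tail current of the secondary pulse compared with the same well before compound.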

Sequence of human ether-à-go-go-related gene (hERG) potassium channel (Q12809 whole entry, looked up): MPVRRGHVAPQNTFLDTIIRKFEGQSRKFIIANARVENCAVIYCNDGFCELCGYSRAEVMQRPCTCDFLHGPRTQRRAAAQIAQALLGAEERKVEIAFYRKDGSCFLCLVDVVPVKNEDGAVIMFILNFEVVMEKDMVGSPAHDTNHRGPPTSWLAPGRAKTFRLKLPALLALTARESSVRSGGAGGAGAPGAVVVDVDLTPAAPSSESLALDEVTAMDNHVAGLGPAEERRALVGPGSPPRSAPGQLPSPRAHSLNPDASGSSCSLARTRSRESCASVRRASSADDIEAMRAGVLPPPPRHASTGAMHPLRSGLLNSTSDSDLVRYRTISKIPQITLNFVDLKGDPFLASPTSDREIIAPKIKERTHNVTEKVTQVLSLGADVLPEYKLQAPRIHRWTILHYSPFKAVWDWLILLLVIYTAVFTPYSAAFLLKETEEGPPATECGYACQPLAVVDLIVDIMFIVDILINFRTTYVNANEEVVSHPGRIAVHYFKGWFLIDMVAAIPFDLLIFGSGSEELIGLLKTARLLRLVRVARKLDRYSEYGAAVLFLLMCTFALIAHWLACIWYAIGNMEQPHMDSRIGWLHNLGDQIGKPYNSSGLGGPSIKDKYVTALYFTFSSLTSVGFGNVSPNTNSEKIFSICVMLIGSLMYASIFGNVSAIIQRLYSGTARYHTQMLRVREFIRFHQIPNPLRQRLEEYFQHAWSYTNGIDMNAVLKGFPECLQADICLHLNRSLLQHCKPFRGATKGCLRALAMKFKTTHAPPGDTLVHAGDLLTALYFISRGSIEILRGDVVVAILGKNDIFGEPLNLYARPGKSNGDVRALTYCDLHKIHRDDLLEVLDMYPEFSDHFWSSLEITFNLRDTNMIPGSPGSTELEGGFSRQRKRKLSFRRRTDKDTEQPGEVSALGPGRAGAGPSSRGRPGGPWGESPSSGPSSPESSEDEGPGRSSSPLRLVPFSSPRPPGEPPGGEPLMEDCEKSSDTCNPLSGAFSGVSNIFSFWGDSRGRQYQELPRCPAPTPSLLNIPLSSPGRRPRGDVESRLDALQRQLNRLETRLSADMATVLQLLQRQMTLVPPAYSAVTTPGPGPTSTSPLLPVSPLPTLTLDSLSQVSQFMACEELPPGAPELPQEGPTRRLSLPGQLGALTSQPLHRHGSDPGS

SMILES | hERG current change (%, negative = inhibition) at 10uM [%]
O=C(CN1C(=O)COc2ccc(S(=O)(=O)N3CCCC3)cc21)NCc1ccccn1 | 2.13
Cc1ccc(Cn2nnc3c(=O)[nH]c(C4CCN(S(=O)(=O)c5ccc(F)cc5)CC4)nc32)cc1 | 6.62
CCn1c(CNC(=O)c2ccc(OC)cc2)nnc1SCC(=O)c1ccccc1 | -6.08
CSc1ccccc1NC(=O)C(=O)c1c[nH]c2ccccc12 | 6.02
CC1=C(C(=O)Nc2ccccc2C)C(c2ccccc2)NC(=O)N1 (stereo not shown) | 12.2
COC(=O)C1CCN(C(=O)CSc2nnc(-c3ccccc3)o2)CC1 | -5.51
CCOC(=O)C1CCN(S(=O)(=O)c2cccc(C(=O)Nc3ccccc3)c2)CC1 | -37
CC(=O)Nc1cccc(NC(=O)c2cc3ccccc3o2)c1 | -10.1
O=C(c1cccnc1)N(c1cc2sc(=O)oc2c2ccccc12)S(=O)(=O)c1ccccc1 | 12.5
O=C(Nc1nc(-c2cccnc2)cs1)c1cccc([N+](=O)[O-])c1 | 1.49
CC(C)(C)OC(=O)NCCCC[C@H](NC(=O)c1nc[nH]c1C(=O)N[C@@H](CCCCNC(=O)OC(C)(C)C)C(=O)OC(C)(C)C)C(=O)OC(C)(C)C | 9.81
COc1ccc(C(=O)NCc2cccnc2)cc1C(=O)NCc1cccnc1.O | 11.9
COC(=O)/C(=C\Nc1ccc(Oc2ccc(F)cc2F)nc1)NC(=O)c1ccccc1 | 10
O=C(NCc1ccccn1)Nc1cccc(F)c1 | 22.7
CCOC(=O)c1ccc(NC(=O)c2nc(S(=O)(=O)Cc3ccccc3)ncc2Cl)cc1 | 34.2
CCOc1ccc(-c2c(C(=O)N/N=C/C3CC=CCC3)nnn2-c2nonc2N)cc1 (stereo not shown) | 0.674
O=C(CCn1ccc2cc(S(=O)(=O)N3CCCC3)ccc21)NCc1ccccc1F | -8.63
COc1cccc(C#Cc2c(CO)[nH]c3ccccc23)c1 | -7.79
CNC(=S)N/N=C(\C)c1ccc(Cl)c(Cl)c1 | 30.1
CCOC(=O)c1c(C)[nH]c(C)c1C(=O)CSc1nc2ccccc2c(=O)n1-c1ccc(CC)cc1 | 7.09
O=c1cc(O)c2sc3nc4c(c(C(F)(F)F)c3c2[nH]1)CCCCC4 | -9.56
Cc1cc2c(=O)n(CC(=O)N3CCN(c4ccccc4)CC3)cnc2s1 | 10.5
